Test results published in PubChem BioAssay AID504832 (National Center for Advancing Translational Sciences (NCATS), 2011).
Out of some 310,000 compounds screened, about 18,000 (5.8%) were called active. Inconclusive means that the source gave no clear call. Such entries were picked first, then a sample of the others. Calls come from the whole dose curve; as a rule, active = well fitted inhibition curve with a large enough effect; inconclusive = small, poorly fitted or top-dose-only effect, or another doubt; inactive = no such curve, though single readings can be large or run the other way. Potencies of inconclusive entries are left out as doubtful fits.

Test: Primary qHTS for delayed death inhibitors of the malarial parasite plastid, 48 hour incubation
Details: P. falciparum luciferase growth in erythrocytes; series mostly up to 28.7 µM; activity change, negative = inhibition: at the top concentration
Procedure, shortened: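 In quantitative HTS format, infected erythrocytes bearing luciferase-reporter parasites were treated for a single generation at 37 C. Luminescence after adding detection reagent served as the growth measure.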
% is set by controls: 0 for no effect and ±100 for the full control effect; potency is the fitted concentration of half-maximal effect; tags give direction and shape of the fitted curve.

Row | SMILES | Potency | activity change, negative = inhibition
1 | Cc1c(C)c2c(OCC(=O)NCC(O)c3ccccc3)cc3c(c2oc1=O)CCC(C)(C)O3 (stereo unspecified) | inconclusive [inhibitor, partial curve, poor fit] | 
2 | Cc1cc(/C=C2\C(=N)N3N=C(S(C)(=O)=O)SC3=NC2=O)c(C)n1Cc1ccccc1 | inconclusive [inhibitor, single point] | 
3 | CC(C)n1c(N2CCN(CC(=O)Nc3ccc4c(c3)OCCO4)CC2)nc2ccccc21 | inconclusive [inhibitor, single point] | 
4 | COC(=O)c1sccc1NC(=O)CN1CCN(c2ccc(F)cc2)CC1 | inconclusive [inhibitor, single point] | 
5 | COc1cccc(CNC(=O)CN(C)S(=O)(=O)c2ccc3c(c2)CC(C)N3C(C)=O)c1 (stereo unspecified) | inconclusive [inhibitor, partial curve, poor fit] | 
6 | CC(C)Oc1ccc(C(CC(=O)NCCCN(C)C)c2ccc(F)cc2)cc1 (stereo unspecified) | inconclusive [inhibitor, single point] | 
7 | CCOC(=O)N1CCN(C(=O)CNC(=O)c2ccc(Cl)cc2)CC1 |  | inactive: 16.7%
8 | COc1ccccc1NS(=O)(=O)c1ccc(NC(=O)c2nc3ncccn3n2)cc1 | inconclusive [inhibitor, single point] | 
9 | CN1CCN(C(=O)c2cc3nc(-c4ccccc4)cc(-c4ccccc4)n3n2)CC1 | inconclusive [inhibitor, single point] | 
10 | CC(NC(=O)c1ccccc1)c1nnc(SCC(=O)Nc2nnc(C3CC3)s2)n1C (stereo unspecified) | inconclusive [inhibitor, partial curve] | 
11 | O=C(CCSc1ccccc1)NC(=O)COC(=O)c1ccc(OC(F)F)cc1 |  | inactive: 3.91%
12 | Cc1cc(C(=O)N2CC=C(c3ccccc3)CC2)c2ccccc2n1 | inconclusive [inhibitor, single point] | 
13 | Cc1ccc(NC(=S)N(CCCN2CCOCC2)Cc2cccs2)c(C)c1 | inconclusive [inhibitor, partial curve] | 
14 | O=C(CCCCCn1c(SCC(=O)c2ccccc2)nc2ccccc2c1=O)NCc1ccco1 | inconclusive [inhibitor, single point] | 
15 | O=C(Cn1nc(Br)nc1Br)c1ccccc1 | inconclusive [inhibitor, partial curve, poor fit] | 
16 | CCN(CC)CCNC(=O)c1ccc(NC(=O)c2c(C)nn(-c3ccc(F)cc3)c2Cl)cc1 | inconclusive [inhibitor, single point] | 
17 | COc1ccccc1-[n+]1c(C)cc(/C=C2\Sc3ccccc3N2C)cc1C | active: 0.928 µM | 
18 | O=C1CN(C(=O)c2c(F)cccc2F)C(c2ccc(F)cc2)c2cc(Br)ccc2N1 (stereo unspecified) | inconclusive [inhibitor, partial curve] | 
19 | CCOc1ccc(OCC(=O)OCC(=O)Nc2ccccc2C#N)cc1 | inconclusive [inhibitor, single point] | 
20 | N#C/C(=C\c1ccc(-c2cccc([N+](=O)[O-])c2)o1)C(=O)NCCN1CCOCC1 | active: 10.4 µM | 
21 | Cc1ccc(NC(=O)CN2CCN(c3ccccn3)CC2)cc1S(=O)(=O)N(C)C | inconclusive [inhibitor, partial curve, poor fit] | 

Row | SMILES | Potency | activity change, negative = inhibition
22 | c1ccc(CNn2c(N3CCOCC3)nc3ccccc32)cc1 | inconclusive [inhibitor, single point] | 
23 | CCCNC(=O)c1nn2cc(Br)cnc2c1Cl |  | inactive: 40%
24 | CCOC(=O)c1c(C)n(Cc2ccccc2)c2ccc(OCC(O)CN3C(=O)CNC3=O)cc12 (stereo unspecified) | inconclusive [inhibitor, partial curve] | 
25 | COc1ccc(C(=O)NCC(c2ccco2)N2CCc3ccccc32)cc1 (stereo unspecified) | inconclusive [inhibitor, single point] | 
26 | CCOc1ccc(Cl)cc1CSc1n[nH]c(CC)n1 | inconclusive [inhibitor, partial curve] | 
27 | Cn1c(=O)c2c(SCC(=O)NCc3ccco3)nc(-c3ccccc3Cl)nc2n(C)c1=O | inconclusive [inhibitor, single point] | 
28 | COc1nc(-c2cccs2)cc(-c2ccc(C)cc2)c1C#N | inconclusive [inhibitor, single point] | 
29 | Clc1ccc(C2CSc3c4ncnc-4ncn32)cc1 (stereo unspecified) | inconclusive [inhibitor, full curve, poor fit] | 
30 | N#Cc1c(N)nc2c3c(sc(=N)c2c1N)NC(=O)CC3c1ccccc1 (stereo unspecified) | inconclusive [inhibitor, partial curve, poor fit] | 
31 | COC(=O)[C@@]12CCCCN1[C@H](c1ccc(SC3CCCCC3)cc1)[C@H]1C(=O)N(C)C(=O)[C@H]12 | inconclusive [inhibitor, single point] | 
32 | O=C(O)/C=C\c1ccccc1Oc1cccc(Cl)c1 | inconclusive [inhibitor, partial curve, poor fit] | 
33 | CC1=CC(C)(C)n2c(O)c(N=N)c3cc(C)cc1c32 |  | inactive: 2.34%
34 | CSCCCNC(=S)N1CCN(c2ccc(C(C)=O)cc2)CC1 | inconclusive [inhibitor, partial curve] | 
35 | O=C(NCCc1ccccc1)C(=O)NN=C1CCCC1 |  | inactive: 3.41%
36 | C#CCNC(=O)C1=C[C@H](c2ccc(C(F)(F)F)cc2)C[C@H](OCc2ccc(CO)cc2)O1 | inconclusive [inhibitor, full curve, poor fit] | 
37 | C/C(=N/NC(=O)c1ccncc1)c1c[nH]c2ccccc12 |  | inactive: 3.64%
38 | CCCn1c(C(O)c2cc(OC)ccc2OC)nc2ccccc21 (stereo unspecified) | inconclusive [inhibitor, partial curve, poor fit] | 
39 | Cc1cc2nc3ccc(=[N+](C)C)cc-3sc2cc1N | active: 0.037 µM | 
40 | CCCCCCc1ccc(N2C[C@H](CCCCC)[C@@H](CC(=O)NCc3ccc(OC)cc3)C2=O)cc1 | inconclusive [inhibitor, single point] | 
41 | O=C(O)[C@@H]1CSCN1 |  | inactive: -5.71%
